Assay [1] has as its target T1, ERH-2, full length (yeast two-hybrid) (C. elegans) (UniProt Q20057).
T1 sequence: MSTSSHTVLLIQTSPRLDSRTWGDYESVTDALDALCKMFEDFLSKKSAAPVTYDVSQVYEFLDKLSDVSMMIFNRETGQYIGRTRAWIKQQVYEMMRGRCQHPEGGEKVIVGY
The experiment in a line: two-hybrid; yeast strain PJ69-4a, pGAD and pGBD plasmids; low-stringency (TRP-LEU-HIS-) or high-stringency (TRP-LEU-HIS-ADE-) medium as indicated; both orientations screened.

The target in assay [2] is T1, ERH-2, full length (yeast two-hybrid) (C. elegans). The assay can be described thus: two-hybrid; yeast strain PJ69-4a, pGAD and pGBD plasmids; lower-stringency conditions.
The target in assay [3] is T2, TOFU-6, full length (yeast two-hybrid) (C. elegans) (UniProt Q09293).
T2 sequence: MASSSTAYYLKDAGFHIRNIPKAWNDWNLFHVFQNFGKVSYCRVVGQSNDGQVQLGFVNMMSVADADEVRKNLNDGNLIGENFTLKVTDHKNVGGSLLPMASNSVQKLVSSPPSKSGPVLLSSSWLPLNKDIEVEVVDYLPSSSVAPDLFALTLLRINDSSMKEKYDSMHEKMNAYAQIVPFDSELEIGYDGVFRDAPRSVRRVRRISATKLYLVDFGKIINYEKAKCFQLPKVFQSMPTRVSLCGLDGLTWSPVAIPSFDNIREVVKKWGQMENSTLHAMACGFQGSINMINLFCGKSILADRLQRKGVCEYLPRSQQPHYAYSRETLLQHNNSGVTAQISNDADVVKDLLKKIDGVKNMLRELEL
The experiment in a line: two-hybrid; yeast strain PJ69-4a, pGAD and pGBD plasmids; low-stringency (TRP-LEU-HIS-) or high-stringency (TRP-LEU-HIS-ADE-) medium as indicated; both orientations screened.

No constants are given. Whether binding was seen depends on the method and setting. Some binding calls cover weakened binding; strength is not graded here.

From PMC6601512 come the findings set out here.

B1: TOST-1, full length (yeast two-hybrid) (protein, UniProt Q18490 1-142)
chain: MTTAIQYQVIPLADREHSNKVASILENKYKTATNKRITLNERFGVLEKGYTIQATEPETVKNDSDVFFVVHDRNLNSKKEFVENYLAKNPIVNSPEKVFEEEDKENAPTKKAVLKPSSTDEKKLTSSDIYIQEITRSILQSV
Turning to B1, in assay [1], the binding entry is listed as “binds”.

B2: ERH-2, full length (yeast two-hybrid) (protein, UniProt Q20057 1-113)
chain: MSTSSHTVLLIQTSPRLDSRTWGDYESVTDALDALCKMFEDFLSKKSAAPVTYDVSQVYEFLDKLSDVSMMIFNRETGQYIGRTRAWIKQQVYEMMRGRCQHPEGGEKVIVGY
Consider B2, for which the binding result in assay [2] is on record as “binds”.

B3: IFE-3, full length (yeast two-hybrid) (protein, UniProt O61955 1-251)
chain: MSTSVAENKALSASGDVNASDASVPPELLTRHPLQNRWALWYLKADRNKEWEDCLKMVSLFDTVEDFWSLYNHIQSAGGLNWGSDYYLFKEGIKPMWEDVNNVQGGRWLVVVDKQKLQRRTQLLDHYWLELLMAIVGEQFDEYGDYICGAVVNVRQKGDKVSLWTRDATRDDVNLRIGQVLKQKLSIPDTEILRYEVHKDSSARTSSTVKPRICLPAKDPAPVKEKGPAATTSPSNPGTEATGTSPATPTP
Consider B3, for which the binding entry in assay [3] was “binds”.

B4: PID-1, full length (yeast two-hybrid) (protein, UniProt Q19541 1-169)
chain: MSAKREFSHITLASTPFKKRIDQNSLKTDSDIEKDTNIAHKCAERFNYNTNLHRKVTLSDRFELAALGYEMKAKPRTIIEKHNDCDEFHFIYRKEKKNDYGTGSPLSAGLSLSNPLPAGRGFLSPAIQNTSNQFTFSGSPRITPQKHTPVSANHKPARSIFDDIPSNIA
In the case of B4, the binding entry in assay [1] was “binds”.

B5: PID-1(R61C) (yeast two-hybrid) (protein, UniProt Q19541 1-169)
chain: MSAKREFSHITLASTPFKKRIDQNSLKTDSDIEKDTNIAHKCAERFNYNTNLHRKVTLSDCFELAALGYEMKAKPRTIIEKHNDCDEFHFIYRKEKKNDYGTGSPLSAGLSLSNPLPAGRGFLSPAIQNTSNQFTFSGSPRITPQKHTPVSANHKPARSIFDDIPSNIA
Turning to B5, the binding result in assay [1] is “no binding”.

B6: PID-3, full length (yeast two-hybrid) (protein, UniProt O76616 1-307)
chain: MVAHQKADFKSKWAMVVTVNNLNDKKRADLREFSEWFIETLRLEGAFIGHYFNYEAAPVTIVETLPGNFDSCTNAYQKIHKEHPQVVLVVHILPQSQSNEYEWMKVLASRYGFVRQGLLYDNCANRFQNVETDQNSVFRNMCQWIYRSGTAIVRNEGNACGILHGKDPKPTFDKVLFNSEDIKDSVFKVLHAEEEPRGADQENMLKISGYPGMLNTFGIAQLLTPYRVNGITITGAQSAVVALENKFQVYQAVQDFNGKKLDRNHKLQVSSLVVSSPAVPLEWPSLKKSKKLVEQVGKPIRLSKVSS
For the molecule B6, in assay [1], the binding result is given as “binds”.
